Results are given in words; binding and its absence hold for the method and conditions named. For part of these data: In cells and extracts the contact can be indirect. Some entries that bind do so weakly or less than the wild type. Tags and fused reporters may be left off the sequences shown.
T1: His14-3C-Utp12 (recombinant) (S. cerevisiae) (UniProt Q12220)
T1 sequence: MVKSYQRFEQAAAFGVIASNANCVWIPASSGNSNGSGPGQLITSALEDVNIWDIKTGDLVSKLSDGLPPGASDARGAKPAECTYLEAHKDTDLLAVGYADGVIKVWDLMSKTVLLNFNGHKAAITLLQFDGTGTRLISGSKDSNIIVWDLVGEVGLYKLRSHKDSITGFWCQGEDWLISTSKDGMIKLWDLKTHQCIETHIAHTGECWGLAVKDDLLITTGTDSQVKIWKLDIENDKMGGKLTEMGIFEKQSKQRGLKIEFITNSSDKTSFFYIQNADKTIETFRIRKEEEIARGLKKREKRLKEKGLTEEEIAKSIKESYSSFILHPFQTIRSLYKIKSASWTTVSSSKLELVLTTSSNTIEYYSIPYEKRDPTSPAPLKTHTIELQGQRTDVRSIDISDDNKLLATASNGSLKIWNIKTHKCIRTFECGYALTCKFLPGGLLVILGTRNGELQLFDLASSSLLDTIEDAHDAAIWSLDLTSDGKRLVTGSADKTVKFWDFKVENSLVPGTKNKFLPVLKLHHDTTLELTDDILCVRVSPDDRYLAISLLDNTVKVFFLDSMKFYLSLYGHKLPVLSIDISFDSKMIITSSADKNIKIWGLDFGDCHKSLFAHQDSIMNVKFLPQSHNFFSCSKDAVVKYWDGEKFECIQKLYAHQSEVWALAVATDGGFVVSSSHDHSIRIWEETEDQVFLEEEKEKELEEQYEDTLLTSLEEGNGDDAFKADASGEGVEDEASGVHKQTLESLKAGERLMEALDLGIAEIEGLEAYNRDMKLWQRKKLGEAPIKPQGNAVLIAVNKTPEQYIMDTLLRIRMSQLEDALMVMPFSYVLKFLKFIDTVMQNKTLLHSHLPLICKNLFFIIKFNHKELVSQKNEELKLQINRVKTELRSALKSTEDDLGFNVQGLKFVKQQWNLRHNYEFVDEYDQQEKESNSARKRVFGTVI

By UniProt entry, the sequences of proteins in these tests, tags left out.
UniProt P42945: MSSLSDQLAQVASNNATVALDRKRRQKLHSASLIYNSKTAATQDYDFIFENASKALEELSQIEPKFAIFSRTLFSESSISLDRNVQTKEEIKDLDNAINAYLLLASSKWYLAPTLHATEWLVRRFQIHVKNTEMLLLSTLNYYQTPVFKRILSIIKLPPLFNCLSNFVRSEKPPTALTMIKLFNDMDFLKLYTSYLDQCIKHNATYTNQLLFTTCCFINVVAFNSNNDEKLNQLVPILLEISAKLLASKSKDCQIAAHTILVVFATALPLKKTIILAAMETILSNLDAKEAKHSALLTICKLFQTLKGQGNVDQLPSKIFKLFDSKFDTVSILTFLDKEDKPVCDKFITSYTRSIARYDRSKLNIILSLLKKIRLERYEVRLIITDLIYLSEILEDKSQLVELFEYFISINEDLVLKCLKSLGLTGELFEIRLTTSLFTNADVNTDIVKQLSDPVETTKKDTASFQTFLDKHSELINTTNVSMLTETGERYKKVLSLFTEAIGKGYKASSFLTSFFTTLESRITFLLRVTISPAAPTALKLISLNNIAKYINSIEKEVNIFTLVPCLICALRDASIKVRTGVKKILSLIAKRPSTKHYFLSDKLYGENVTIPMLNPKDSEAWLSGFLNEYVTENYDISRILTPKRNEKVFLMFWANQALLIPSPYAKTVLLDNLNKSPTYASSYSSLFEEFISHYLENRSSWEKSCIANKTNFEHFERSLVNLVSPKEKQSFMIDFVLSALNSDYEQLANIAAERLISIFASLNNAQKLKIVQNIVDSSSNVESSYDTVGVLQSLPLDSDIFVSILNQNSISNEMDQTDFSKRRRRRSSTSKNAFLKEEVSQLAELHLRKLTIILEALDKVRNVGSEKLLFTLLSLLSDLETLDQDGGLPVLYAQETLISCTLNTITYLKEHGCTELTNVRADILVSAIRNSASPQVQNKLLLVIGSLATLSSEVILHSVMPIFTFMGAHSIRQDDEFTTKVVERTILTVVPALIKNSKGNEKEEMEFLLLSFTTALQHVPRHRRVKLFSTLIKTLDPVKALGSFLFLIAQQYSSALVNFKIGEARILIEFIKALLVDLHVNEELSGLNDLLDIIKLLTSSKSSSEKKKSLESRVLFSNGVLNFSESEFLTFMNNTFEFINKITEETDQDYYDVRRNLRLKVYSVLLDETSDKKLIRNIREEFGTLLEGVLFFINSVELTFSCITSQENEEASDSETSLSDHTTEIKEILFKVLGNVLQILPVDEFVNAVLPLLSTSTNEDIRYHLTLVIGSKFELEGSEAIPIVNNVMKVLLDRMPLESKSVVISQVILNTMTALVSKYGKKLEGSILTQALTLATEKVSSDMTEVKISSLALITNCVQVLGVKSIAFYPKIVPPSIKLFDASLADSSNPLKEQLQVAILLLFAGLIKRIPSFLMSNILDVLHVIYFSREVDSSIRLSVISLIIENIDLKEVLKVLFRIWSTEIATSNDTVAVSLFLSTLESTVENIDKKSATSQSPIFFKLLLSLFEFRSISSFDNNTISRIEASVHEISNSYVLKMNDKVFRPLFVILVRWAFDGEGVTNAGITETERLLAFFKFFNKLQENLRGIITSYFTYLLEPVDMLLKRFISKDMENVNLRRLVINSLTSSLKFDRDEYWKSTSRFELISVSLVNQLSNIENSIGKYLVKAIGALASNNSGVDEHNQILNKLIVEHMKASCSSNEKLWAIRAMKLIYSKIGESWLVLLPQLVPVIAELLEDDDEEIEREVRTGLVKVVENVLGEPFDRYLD

B1: Utp4 (protein, UniProt Q06679 1-776)
chain: MSSSLLSVLKEKSRSLKIRNKPVKMTSQERMIVHRCRFVDFTPATITSLAFSHKSNINKLTPSDLRLAIGRSNGNIEIWNPRNNWFQEMVIEGGKDRSIEGLCWSNVNGESLRLFSIGGSTVVTEWDLATGLPLRNYDCNSGVIWSISINDSQDKLSVGCDNGTVVLIDISGGPGVLEHDTILMRQEARVLTLAWKKDDFVIGGCSDGRIRIWSAQKNDENMGRLLHTMKVDKAKKESTLVWSVIYLPRTDQIASGDSTGSIKFWDFQFATLNQSFKAHDADVLCLTTDTDNNYVFSAGVDRKIFQFSQNTNKSQKNNRWVNSSNRLLHGNDIRAICAYQSKGADFLVSGGVEKTLVINSLTSFSNGNYRKMPTVEPYSKNVLVNKEQRLVVSWSESTVKIWTMGTDSSTEQNYKLVCKLTLKDDQNISTCSLSPDGQVLVVGRPSTTKVFHLQPVGNKLKVTKLDNDLLLRTSTKLVKFIDNSKIVICSCEDDVFIVDLESEEDEKPQEVELLEVTSTKSSIKVPYINRINHLEVDQNIAVISRGCGVVDILDLKARISKPLARLNNFITAVHINTSRKSVVVITADNKIYEFNMNLNSEAENEDSESVLTQWSKNNTDNLPKEWKTLKENCVGIFSDIENSSRLWFWGATWISRIDFDVDFPINKRRKQKKRTHEGLTITDESNFMNDEEDDEDDDIDMEISENLNVLLNQGNKIKSTDVQRNEESSGHFFFTDKYKPLLFVDLISSNELAIIERNPLTFHSKQKAFIQPKLVF
B2: Utp15-3myc-TEV-mCherry-3FLAG (overexpressed) (natural protein, S. cerevisiae, UniProt Q04305 1-513, looked up)
chain: MSTARPRIITSKAPLLPQQTTPEQRYWRQYTSAQLVKEHNSVTHISFNPQHPHDFAVTSSTRVQIFSSRTRQVIKTFSRFKDVVYSASFRSDGKLLCAGDATGLVSVYDSYNPRTILLSINASTHPTHVTKFHTQDNKILATASDDRVTRLWDISNAYEPQLELTGATDYVRTLSFIPAAPHLVATGSYDGLIRLYDTRSSGSTPIYSLNHDQPVENVIAVSPTQIVSCGGNNFKVWDLTSNKKLYERGNFNKAVTCLDYVENFDSPMQSALIASSLDGHVKVFDPLDNFQVKFGWKFSGPVLSCAVSPSTAQGNRHLVAGLSSGLLAIRTKKKEKRSSDKENAPASFNKNAKSNNFQRMMRGSEYQGDQEHIIHNDKVRSQRRMRAFERNINQFKWSEALDNAFVPGMAKELTLTVLQELRKRGKVRVALYGRDESTLEPLLNWCLKGIEDVRSASIVADWVAVVLELYGNTLESSPVLQELMIDLKTKVRHEIHKSKEAQRIEGMLQLLTS
notes: Utp15, S. cerevisiae, subunit of UtpA; Captured by mCherry in a4; the complex is eluted by TEV cleavage, so mCherry-3FLAG is off in the SEC step (a5); also called Utp15-TEV-mCherry; Utp15-mCherry; source: S. cerevisiae YSK122, overexpressed (galactose promoter); captured from lysate on anti-mCherry nanobody sepharose, TEV elution, SEC; not shown: 3myc, C-terminal, kept; mCherry, C-terminal, kept; …
B3: Utp13 (recombinant) (protein, UniProt Q05946 1-817)
chain: MDLKTSYKGISLNPIYAGSSAVATVSENGKILATPVLDEINIIDLTPGSRKILHKISNEDEQEITALKLTPDGQYLTYVSQAQLLKIFHLKTGKVVRSMKISSPSYILDADSTSTLLAVGGTDGSIIVVDIENGYITHSFKGHGGTISSLKFYGQLNSKIWLLASGDTNGMVKVWDLVKRKCLHTLQEHTSAVRGLDIIEVPDNDEPSLNLLSGGRDDIINLWDFNMKKKCKLLKTLPVNQQVESCGFLKDGDGKRIIYTAGGDAIFQLIDSESGSVLKRTNKPIEELFIIGVLPILSNSQMFLVLSDQTLQLINVEEDLKNDEDTIQVTSSIAGNHGIIADMRYVGPELNKLALATNSPSLRIIPVPDLSGPEASLPLDVEIYEGHEDLLNSLDATEDGLWIATASKDNTAIVWRYNENSCKFDIYAKYIGHSAAVTAVGLPNIVSKGYPEFLLTASNDLTIKKWIIPKPTASMDVQIIKVSEYTRHAHEKDINALSVSPNDSIFATASYDKTCKIWNLENGELEATLANHKRGLWDVSFCQYDKLLATSSGDKTVKIWSLDTFSVMKTLEGHTNAVQRCSFINKQKQLISCGADGLIKIWDCSSGECLKTLDGHNNRLWALSTMNDGDMIVSADADGVFQFWKDCTEQEIEEEQEKAKLQVEQEQSLQNYMSKGDWTNAFLLAMTLDHPMRLFNVLKRALGESRSRQDTEEGKIEVIFNEELDQAISILNDEQLILLMKRCRDWNTNAKTHTIAQRTIRCILMHHNIAKLSEIPGMVKIVDAIIPYTQRHFTRVDNLVEQSYILDYALVEMDKLF
B4: Utp9 (natural protein, S. cerevisiae, UniProt P38882 1-575, looked up)
chain: MGSSLDLVASFSHDSTRFAFQASVAQKNNVDIYPLNETKDYVVNSSLVSHIDYETNDMKVSDVIFFGWCSDLIDTQSSNIKRKLDEDEGTGESSEQRCENFFVNGFPDGRIVVYSSNGKDIVNIIKNKKEILGADTDESDIWILDSDKVVKKLQYNNSKPLKTFTLVDGKDDEIVHFQILHQNGTLLVCIITKQMVYIVDPSKRRPSTKYSFEISDAVACEFSSDGKYLLIANNEELIAYDLKEDSKLIQSWPVQVKTLKTLDDLIMALTTDGKINNYKIGEADKVCSIVVNEDLEIIDFTPINSKQQVLISWLNVNEPNFESISLKEIETQGYITINKNEKNNADEADQKKLEEKEEEAQPEVQHEKKETETKINKKVSKSDQVEIANILSSHLEANSTEILDDLMSGSWTEPEIKKFILTKINTVDHLSKIFLTISKSITQNPWNEENLLPLWLKWLLTLKSGELNSIKDKHTKKNCKHLKSALRSSEEILPVLLGIQGRLEMLRRQAKLREDLAQLSMQEGEDDEIEVIEHSNVISNPLQDQASPVEKLEPDSIVYANGESDEFVDASEYKD
notes: Utp9, S. cerevisiae, subunit of UtpA; No tag is named for it in either strain; strains are in Supplementary Data 1; source: endogenous, S. cerevisiae YSK32, co-purified with Utp10-GFP; overexpressed (galactose promoter) in S. cerevisiae YSK122, co-purified with Utp15-mCherry

Experiments:
Utp10-3C-GFP [1] = target: T2, Utp10-3C-GFP (S. cerevisiae, UniProt P42945 1-1769); assay: pull-down; UtpA held via Utp10-GFP on anti-GFP nanobody sepharose (purified at 200 mM NaCl), then incubated 7 h at 4 °C in buffer with 400 mM NaCl; 3C elution; Coomassie-stained SDS-PAGE
T2 construct: Utp10, S. cerevisiae, subunit of UtpA (200 kDa); GFP is joined through a 3C protease site; it holds the protein on the beads in a1-a3 and is cleaved off by 3C on elution, so it is absent in the SEC step and in the DSS cross-linking (a6); also called Utp10-GFP; Utp10-sbp-H14-3C-GFP; source: S. cerevisiae YSK32, C-terminal tag integrated in the genome, endogenous level; captured from lysate on …

Utp10-3C-GFP [2] = target: T2, Utp10-3C-GFP; assay: pull-down + SEC; endogenous UtpA from YSK32 lysate captured via Utp10-GFP on anti-GFP nanobody sepharose; 50 mM HEPES-NaOH pH 7.6, 200 mM NaCl, 1 mM EDTA, 4 °C; eluted with TEV and 3C protease; Superose 6; peak fraction on Coomassie-stained SDS-PAGE
Utp10-3C-GFP [3] = target: T2, Utp10-3C-GFP; assay: pull-down; UtpA held via Utp10-GFP on anti-GFP nanobody sepharose (purified at 200 mM NaCl), then incubated 7 h at 4 °C in buffer with 800 mM NaCl; 3C elution; Coomassie-stained SDS-PAGE
[4] = target: T1, His14-3C-Utp12 (recombinant) (S. cerevisiae); assay: cross-linking; DSS (0.2, 0.4 and 0.8 mM, H12/D12) cross-linking of SEC-purified recombinant UtpBΔUtp6ΔUtp18, 0.2 mg/ml, room temperature, 30 min, 50 mM HEPES-NaOH pH 7.7, 300 mM NaCl, 1 mM EDTA; cross-linked peptides found by mass spectrometry (pLink); both purified
[5] = target: T1, His14-3C-Utp12 (recombinant) (S. cerevisiae); assay: SEC; Utp12 and Utp13 co-expressed in E. coli and purified; main peak of the preparative run and analytical run (500 μl of 0.25 μM Utp12/Utp13, Superose 6 Increase, 50 mM HEPES-NaOH pH 7.7, 300 mM NaCl, 1 mM EDTA); both purified
[6] = target: T1, His14-3C-Utp12 (recombinant) (S. cerevisiae); assay: SEC; Utp12/Utp13/StrepII-Sumo-Utp21/Utp1 co-expressed in E. coli and purified by the His14 tag on Utp12; main peak fraction of the size-exclusion run; 50 mM HEPES-NaOH pH 7.6, 300 mM NaCl; both purified

Binder | binding (Utp10-3C-GFP [1]) | binding (Utp10-3C-GFP [2]) | binding (Utp10-3C-GFP [3]) | binding [4] | binding [5] | binding [6]
B1 | no binding (condition: 400 mM NaCl) | binds | no binding (condition: 800 mM NaCl) | – | – | –
B2 | binds | binds | no binding (condition: 800 mM NaCl) | – | – | –
B3 | – | – | – | binds | binds | binds
B4 | binds | binds | no binding (condition: 800 mM NaCl) | – | – | –
